According to publication PMC9911399, “Two distinct binding modes provide the RNA-binding protein RbFox with extraordinary sequence specificity”:
Numbering of substitutions follows the chain as printed; changes in the protein carry UniProt numbers. The list shows a part of the results.

B1: AAAAUGA (DNA:RNA)
RNA: GGGAGACCGGAAUUCAGAUUGUCCAAAAUGAUUAAAUCCCGUCGUAGCCACCA
DNA 1: CAATCTGAATTCCGGTCTCCC
DNA 2: TGGTGGCTACGACGGGATT
B2: UCCAGUC (DNA:RNA)
RNA: B1 RNA with A25U, A26C, A27C, U29G, G30U, A31C
DNA 1: CAATCTGAATTCCGGTCTCCC
DNA 2: TGGTGGCTACGACGGGATT
B3: CCUUUUG (DNA:RNA)
RNA: B1 RNA with A25C, A26C, A27U, A28U, G30U, A31G
DNA 1: CAATCTGAATTCCGGTCTCCC
DNA 2: TGGTGGCTACGACGGGATT
B4: GGACACA (DNA:RNA)
RNA: B1 RNA with A25G, A26G, A28C, U29A, G30C
DNA 1: CAATCTGAATTCCGGTCTCCC
DNA 2: TGGTGGCTACGACGGGATT
B5: CAGGCAG (DNA:RNA)
RNA: B1 RNA with A25C, A27G, A28G, U29C, G30A, A31G
DNA 1: CAATCTGAATTCCGGTCTCCC
DNA 2: TGGTGGCTACGACGGGATT
B6: GUUCUUU (DNA:RNA)
RNA: B1 RNA with A25G, A26U, A27U, A28C, G30U, A31U
DNA 1: CAATCTGAATTCCGGTCTCCC
DNA 2: TGGTGGCTACGACGGGATT
B7: GCUGCAG (DNA:RNA)
RNA: GGGAGACCGGAAUUCAGAUUGUCCGCUGCAGUUAAAUCCCGUCGUAGCCACCA
DNA 1: CAATCTGAATTCCGGTCTCCC
DNA 2: TGGTGGCTACGACGGGATT
B8: UCGCUCU (DNA:RNA)
RNA: B1 RNA with A25U, A26C, A27G, A28C, G30C, A31U
DNA 1: CAATCTGAATTCCGGTCTCCC
DNA 2: TGGTGGCTACGACGGGATT
B9: CUCGAAG (DNA:RNA)
RNA: B7 RNA with G25C, C26U, U27C, C29A
DNA 1: CAATCTGAATTCCGGTCTCCC
DNA 2: TGGTGGCTACGACGGGATT
B10: ACUGGAC (DNA:RNA)
RNA: B7 RNA with G25A, C29G, G31C
DNA 1: CAATCTGAATTCCGGTCTCCC
DNA 2: TGGTGGCTACGACGGGATT
B11: UUAACCU (DNA:RNA)
RNA: B1 RNA with A25U, A26U, U29C, G30C, A31U
DNA 1: CAATCTGAATTCCGGTCTCCC
DNA 2: TGGTGGCTACGACGGGATT
B12: UCGCCAU (DNA:RNA)
RNA: B7 RNA with G25U, U27G, G28C, G31U
DNA 1: CAATCTGAATTCCGGTCTCCC
DNA 2: TGGTGGCTACGACGGGATT
B13: CUUCGAC (DNA:RNA)
RNA: B7 RNA with G25C, C26U, G28C, C29G, G31C
DNA 1: CAATCTGAATTCCGGTCTCCC
DNA 2: TGGTGGCTACGACGGGATT
B14: CAUCUAG (DNA:RNA)
RNA: B7 RNA with G25C, C26A, G28C, C29U
DNA 1: CAATCTGAATTCCGGTCTCCC
DNA 2: TGGTGGCTACGACGGGATT
B15: CUAGCUA (DNA:RNA)
RNA: B1 RNA with A25C, A26U, A28G, U29C, G30U
DNA 1: CAATCTGAATTCCGGTCTCCC
DNA 2: TGGTGGCTACGACGGGATT
B16: AAAGCUC (DNA:RNA)
RNA: B1 RNA with A28G, U29C, G30U, A31C
DNA 1: CAATCTGAATTCCGGTCTCCC
DNA 2: TGGTGGCTACGACGGGATT
B17: AUAACUG (DNA:RNA)
RNA: B1 RNA with A26U, U29C, G30U, A31G
DNA 1: CAATCTGAATTCCGGTCTCCC
DNA 2: TGGTGGCTACGACGGGATT
B18: GAAGAGU (DNA:RNA)
RNA: B1 RNA with A25G, A28G, U29A, A31U
DNA 1: CAATCTGAATTCCGGTCTCCC
DNA 2: TGGTGGCTACGACGGGATT
B19: ACCGUUA (DNA:RNA)
RNA: B1 RNA with A26C, A27C, A28G, G30U
DNA 1: CAATCTGAATTCCGGTCTCCC
DNA 2: TGGTGGCTACGACGGGATT
B20: GCGCUUC (DNA:RNA)
RNA: B7 RNA with U27G, G28C, C29U, A30U, G31C
DNA 1: CAATCTGAATTCCGGTCTCCC
DNA 2: TGGTGGCTACGACGGGATT

These binders were tested against T1, RBFOX1 RRM RbFoxmut (Fox-RRM*) (Homo sapiens, UniProt Q9NWB1 109-208, R118D;E147R;N151S;E152T) (assay: EMSA; HiTS-Eq, 1 nM pool, 10 min; buffer printed only for the single-RNA assays: 10 mM Tris pH 7.5, 150 mM NaCl, 3.4 mM EDTA, 0.001% NP-40, 30 C). Details: tags: His6 N-terminal (pET28a); label: 5' 32P.
T1 sequence: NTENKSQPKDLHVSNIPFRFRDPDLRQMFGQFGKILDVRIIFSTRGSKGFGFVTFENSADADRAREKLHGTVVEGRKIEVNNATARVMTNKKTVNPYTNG
Procedure, shortened: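 Purified RbFox RRM (wild type or mutant) was equilibrated for 10 min in 50 µL with 1 nM of a 5′-radiolabelled pool of RNA with 7 randomized nucleotides, its flanks annealed to DNA oligonucleotides, across increasing protein concentrations. Free RNA was separated by 8% native PAGE, excised, reverse-transcribed, PCR-barcoded and sequenced on an Illumina HiSeq 2500. Relative association constants came from read-count changes of each variant against the control reaction, normalised to the cognate motif.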

Binder | binding signal
B1 | 0.0892 KA relative to UGCAUGU
B2 | 0.0782 KA relative to UGCAUGU
B3 | 0.103 KA relative to UGCAUGU
B4 | 0.0556 KA relative to UGCAUGU
B5 | 0.0891 KA relative to UGCAUGU
B6 | 0.0764 KA relative to UGCAUGU
B7 | 0.109 KA relative to UGCAUGU
B8 | 0.0658 KA relative to UGCAUGU
B9 | 0.0859 KA relative to UGCAUGU
B10 | 0.0904 KA relative to UGCAUGU
B11 | 0.0822 KA relative to UGCAUGU
B12 | 0.098 KA relative to UGCAUGU
B13 | 0.0742 KA relative to UGCAUGU
B14 | 0.105 KA relative to UGCAUGU
B15 | 0.0998 KA relative to UGCAUGU
B16 | 0.0711 KA relative to UGCAUGU
B17 | 0.102 KA relative to UGCAUGU
B18 | 0.0905 KA relative to UGCAUGU
B19 | 0.0994 KA relative to UGCAUGU
B20 | 0.0864 KA relative to UGCAUGU
